The data scatter; read single values as rough.
B1: Ydj1; a variant is named by its letters at X, in order (parent)
chain: MVKETKFYDILGVPVTATDVEIKKAYRKCALKYHPDKNPSEEAAEKFKEASAAYEILSDPEKRDIYDQFGEDGLSGAGGAGGFPGGGFGFGDDIFSQFFGAGGAQRPRGPQRGKDIKHEISASLEELYKGRTAKLALNKQILCKECEGRGGKKGAVKKCTSCNGQGIKFVTRQMGPMIQRFQTECDVCHGTGDIIDPKDRCKSCNGKKVENERKILEVHVEPGMKDGQRIVFKGEADQAPDVIPGDVVFIVSERPHKSFKRDGDDLVYEAEIDLLTAIAGGEFALEHVSGDWLKVGIVPGEVIAPGMRKVIEGKGMPIPKYGGYGNLIIKFTIKFPENHFTSEENLKKLEEILPPRIVPAIPKKATVDECVLADFDPAKYNRTRASRGGANYDSDEEEQGGEGVQCXXX

Variants of: B1
Test: enrichment factor, frequency at 37 °C / frequency at 25 °C (thermotolerance selection) (ratio); higher = more growth at 37 °C, higher likelihood of farnesylation
Settings: with Saccharomyces cerevisiae ydj1Δ (yWS304); selective temperature 37 °C; reference temperature 25 °C
Work on GWQ yielded an enrichment factor of 1.55.
GWP gave an enrichment factor of 0.129.
GWL gave an enrichment factor of 0.692.
GWK was tested, and the enrichment factor was 0.0699.
In the case of GWH, the enrichment factor is reported as 0.486.
Variant RWQ has an enrichment factor of 1.42.
RWP was tested, and the enrichment factor was 0.131.
In the case of RWR, the enrichment factor is reported as 0.121.
With RWA the enrichment factor was 1.74.
In the case of RWD, the enrichment factor is reported as 1.46.
RWE was tested, and the enrichment factor was 1.61.
Work on RWS yielded an enrichment factor of 2.32.
For RWH, the enrichment factor was 1.85.
RWL showed an enrichment factor of 1.05.
In the case of RWI, the enrichment factor is reported as 0.935.
RWC showed an enrichment factor of 0.695.
Work on RWK yielded an enrichment factor of 0.146.
For RWG, the enrichment factor was 2.19.
RWN showed an enrichment factor of 2.17.
RWM gave an enrichment factor of 0.409.
RWF showed an enrichment factor of 0.92.
Work on EWQ yielded an enrichment factor of 2.5.
EWD gave an enrichment factor of 0.577.
In the case of EWC, the enrichment factor is reported as 0.483.
EWP was tested, and the enrichment factor was 0.138.
EWI showed an enrichment factor of 1.33.
With EWS the enrichment factor was 1.84.
For EWK, the enrichment factor was 0.245.
Variant EWA has an enrichment factor of 6.02.
In the case of EWN, the enrichment factor is reported as 1.83.
EWL was tested, and the enrichment factor was 1.23.
In the case of EWT, the enrichment factor is reported as 1.47.
With EWR the enrichment factor was 0.132.
Work on EWF yielded an enrichment factor of 0.969.
EWG showed an enrichment factor of 2.87.
With EWE the enrichment factor was 1.61.
In the case of EWH, the enrichment factor is reported as 1.76.
In the case of EWM, the enrichment factor is reported as 2.08.
For PWQ, the enrichment factor was 1.42.
In the case of PWC, the enrichment factor is reported as 0.158.
Work on PWR yielded an enrichment factor of 0.138.
For PWN, the enrichment factor was 1.75.
PWA was tested, and the enrichment factor was 1.18.
In the case of PWI, the enrichment factor is reported as 1.18.
PWF was tested, and the enrichment factor was 1.62.
With PWE the enrichment factor was 1.75.
PWK showed an enrichment factor of 0.236.
PWD showed an enrichment factor of 1.11.
PWH was tested, and the enrichment factor was 1.44.
PWL gave an enrichment factor of 1.63.
Work on PWM yielded an enrichment factor of 0.703.
Variant PWG has an enrichment factor of 1.37.
In the case of PWS, the enrichment factor is reported as 1.46.
In the case of PWP, the enrichment factor is reported as 0.181.
AWS was tested, and the enrichment factor was 3.37.
AWK showed an enrichment factor of 1.04.
With AWH the enrichment factor was 1.19.
With AWQ the enrichment factor was 1.3.
AWC showed an enrichment factor of 0.695.
With AWN the enrichment factor was 4.4.
AWG was tested, and the enrichment factor was 2.16.
AWL was tested, and the enrichment factor was 1.75.
Variant AWR has an enrichment factor of 0.169.
For AWE, the enrichment factor was 1.82.
AWI was tested, and the enrichment factor was 0.772.
For AWD, the enrichment factor was 1.63.
AWF gave an enrichment factor of 1.29.
AWA showed an enrichment factor of 1.82.
AWP showed an enrichment factor of 0.141.
Work on AWM yielded an enrichment factor of 0.463.
CWE showed an enrichment factor of 0.812.
Variant CWI has an enrichment factor of 0.279.
CWR was tested, and the enrichment factor was 0.677.
CWF gave an enrichment factor of 0.678.
Work on CWD yielded an enrichment factor of 0.309.
With CWN the enrichment factor was 0.502.
Variant CWG has an enrichment factor of 0.528.
Variant CWQ has an enrichment factor of 0.307.
For CWS, the enrichment factor was 0.599.
CWA was tested, and the enrichment factor was 0.421.
For CWP, the enrichment factor was 0.342.
Variant CWK has an enrichment factor of 0.188.
CWC showed an enrichment factor of 0.044.
CWL showed an enrichment factor of 0.505.
Work on CWM yielded an enrichment factor of 0.515.
CWH showed an enrichment factor of 0.541.
Variant DWR has an enrichment factor of 0.113.
Variant DWD has an enrichment factor of 0.143.
In the case of DWE, the enrichment factor is reported as 0.15.
For DWP, the enrichment factor was 0.188.
DWN gave an enrichment factor of 0.348.
Work on DWL yielded an enrichment factor of 0.382.
In the case of DWI, the enrichment factor is reported as 0.315.
DWK gave an enrichment factor of 0.147.
For DWG, the enrichment factor was 0.371.
Variant DWT has an enrichment factor of 0.403.
DWM gave an enrichment factor of 1.99.
Work on DWQ yielded an enrichment factor of 2.53.
Work on DWH yielded an enrichment factor of 0.172.
With DWF the enrichment factor was 0.388.
DWA showed an enrichment factor of 1.02.
With DWS the enrichment factor was 0.499.
For DWC, the enrichment factor was 0.116.
For WWQ, the enrichment factor was 1.01.
For WWR, the enrichment factor was 0.322.
WWG gave an enrichment factor of 1.17.
For WWS, the enrichment factor was 1.61.
In the case of WWE, the enrichment factor is reported as 0.915.
Work on WWI yielded an enrichment factor of 1.81.
WWN gave an enrichment factor of 1.87.
Variant WWC has an enrichment factor of 0.0362.
Variant WWH has an enrichment factor of 1.1.
Variant WWF has an enrichment factor of 1.59.
WWD was tested, and the enrichment factor was 0.639.
Work on WWA yielded an enrichment factor of 0.708.
WWP was tested, and the enrichment factor was 1.23.
WWK was tested, and the enrichment factor was 0.283.
For WWM, the enrichment factor was 2.51.
In the case of WWL, the enrichment factor is reported as 1.69.
In the case of WVY, the enrichment factor is reported as 1.27.
Work on MWD yielded an enrichment factor of 1.05.
Work on MWC yielded an enrichment factor of 0.386.
Work on MWF yielded an enrichment factor of 1.22.
Variant MWM has an enrichment factor of 0.331.
MWI gave an enrichment factor of 1.41.
MWQ gave an enrichment factor of 1.12.
In the case of MWN, the enrichment factor is reported as 1.24.
Work on MWG yielded an enrichment factor of 0.842.
In the case of MWK, the enrichment factor is reported as 0.246.
Work on MWH yielded an enrichment factor of 2.11.
MWL gave an enrichment factor of 1.85.
MWP showed an enrichment factor of 0.236.
MWR showed an enrichment factor of 0.234.
MWA gave an enrichment factor of 1.74.
In the case of MWE, the enrichment factor is reported as 1.64.
MWS showed an enrichment factor of 2.22.
With QWF the enrichment factor was 1.24.
With QWG the enrichment factor was 1.36.
For QWN, the enrichment factor was 1.96.
Variant QWC has an enrichment factor of 0.869.
Variant QWI has an enrichment factor of 1.56.
In the case of QWQ, the enrichment factor is reported as 3.05.
Work on QWE yielded an enrichment factor of 2.1.
With QWS the enrichment factor was 2.4.
Work on QWP yielded an enrichment factor of 0.163.
QWH showed an enrichment factor of 2.54.
QWR was tested, and the enrichment factor was 0.129.
With QWA the enrichment factor was 1.16.
In the case of QWL, the enrichment factor is reported as 1.8.
With QWK the enrichment factor was 0.237.
Work on QWD yielded an enrichment factor of 1.52.
For QWM, the enrichment factor was 1.05.
For NWK, the enrichment factor was 0.111.
NWG showed an enrichment factor of 4.3.
NWE gave an enrichment factor of 2.04.
Variant NWH has an enrichment factor of 1.86.
NWI gave an enrichment factor of 1.7.
Variant NWS has an enrichment factor of 4.22.
For NWF, the enrichment factor was 1.89.
Work on NWD yielded an enrichment factor of 1.09.
NWA showed an enrichment factor of 2.32.
With NWR the enrichment factor was 0.2.
NWQ showed an enrichment factor of 3.47.
Variant NWP has an enrichment factor of 0.168.
Work on NWN yielded an enrichment factor of 2.19.
With NWM the enrichment factor was 0.901.
In the case of NWL, the enrichment factor is reported as 1.29.

From the supplement of paper PMC10320760
